# From PubChem BioAssay (NCATS)
# Several values for one entry are separate records, joined by “and”; a condition that tells them apart may be missing. Identical values can stand only once. The shares of active, inactive and inconclusive entries below differ from those in the screen. A potency beside an inconclusive call is a rough fit, not a confirmed value. Activity calls are given as the source filed them. Calls come from the whole dose curve; as a rule, active = well fitted inhibition curve with a large enough effect; inconclusive = small, poorly fitted or top-dose-only effect; inactive = no such curve, though single readings can be large or run the other way.
# Assay: Tertiary RLuc qRT-PCR qHTS assay for Zika virus inhibitors (AID 1347169); note: nearly all actives have a fitted effect of over 55% in size
# Settings: infected Vero cells, reporter luminescence, 48-72 h
# Text: Avindra Nath, Ph.D., National Institute of Neurological Disorders and Stroke (NINDS), Bethesda, MD
# Radhakrishnan Padmanabhan, Ph.D., Georgetown University (GU), Washington D.C.
# Zika Virus causes congenital defects, including microcephaly and is associated with Guillain-Barre syndrome, eningoencephalitis and myelitis in infected adult. […] Using a target-based approach, we hope to establish a screening paradigm to uncover novel, cell-active NS2B-NS3 protease (Zika Virus) specific inhibitors from NCATS' collection of small molecules using qHTS.
# Four assay panel was created to identify potential Zika Virus inhibitors. Namely, (1) GU unlinked NS2B-NS3 AMC tagged protease qHTS, (2) GU unlinked NS2B-NS3 Rhodamine tagged protease qHTS, (3) NINDS linked NS2B-NS3 AMC tagged protease qHTS, (4) NINDS linked NS2B-NS3 Rhodamine tagged protease qHTS. Identified inhibitors were re-acquired and tested against secondary confirmatory, orthogonal, and counterscreens to exclude nonspecific inhibition.
# Early Translation Branch (ETB)
# National Center for Advancing Translational Sciences (NCATS), Rockville, MD
# National Institute of Health (NIH), Bethesda, Maryland
# 1536-well recombinant virus ZIKV-RLuc (Cambodian) Assay:
# For a follow-up assay, we adapted a high throughput orthogonal assay in 1536-well plate format to use the recombinant virus ZIKV-RLuc, in Vero cells. Briefly, three microL of Vero cells derived from a green monkey cell line, were dispensed Multidrop Dispenser into a solid bottom white 1,536-well plate at a concentration of 1,000 cells per well. The plate was incubated overnight in a CO2 incubator at 37 degrees C. Compounds were delivered as a 23 nL DMSO solution by Kalypsys pintool transfer. Following compound transfer, 2 microL of ZIKV-RLuc was added at an MOI of 1-2 and incubated in a CO2 incubator for 48-72 hrs at 37 degrees C. After sufficient incubation of infected cells in test plates, live cell Renilla luciferase substrate (Promega) was added. The luminescence signal was measured after 1-1.5 hrs exposure to substrate in ViewLux reader.
# Potency is the fitted concentration of half-maximal effect; tags give direction and shape of the fitted curve.
row,SMILES,Potency
1,Cc1cc(SCc2sc(-c3ccc(C(F)(F)F)c(F)c3)nc2C)ccc1OCC(=O)O,"inconclusive: 36.9 µM [inhibitor, single point] and inconclusive: 23.3 µM [inhibitor, partial curve, poor fit] and active: 23.4 µM"
2,C[C@@H]1O[C@@H](O[C@H]2C[C@@H](O)[C@]3(CO)[C@H]4[C@H](O)C[C@]5(C)[C@@H](C6=CC(=O)OC6)CC[C@]5(O)[C@@H]4CC[C@]3(O)C2)[C@H](O)[C@H](O)[C@H]1O,active: 117 nM and active: 58.7 nM
3,CC(C)(O)[C@H]1O[C@H]2CC[C@@]3(C)[C@@](O)(CC[C@H]4Cc5c([nH]c6ccccc56)[C@@]43C)C2=CC1=O,"inconclusive: 10.2 µM [inhibitor, single point]"
4,CC(=O)N(C)c1cccc(-c2ccnc3c(C(=O)c4cccs4)cnn23)c1,"inconclusive: 37 µM [inhibitor, single point]"
5,Oc1cc(Cl)c(Cl)cc1Cl,inactive
6,O=C1OC(c2ccc(O)c(S(=O)(=O)O)c2)(c2ccc(O)c(S(=O)(=O)O)c2)c2c(Br)c(Br)c(Br)c(Br)c21,"inconclusive: 0.0787 µM [inhibitor, partial curve, poor fit]"
7,O=C1C(I)=CC(=C(c2cc(I)c(O)c(I)c2)c2ccccc2C(=O)O)C=C1I,"inconclusive: 20 µM [inhibitor, partial curve, poor fit]"
8,CC1=C(O)C(=O)C=C2C1=CC=C1[C@@]2(C)CC[C@@]2(C)[C@@H]3C[C@](C)(C(=O)O)CC[C@]3(C)CC[C@]12C,"inconclusive: 3.69 µM [inhibitor, full curve] and inconclusive: 1.31 µM [inhibitor, full curve]"
9,O=C(O)C(=O)c1cn(Cc2ccccc2)c2ccc(-c3ccc(OC(F)(F)F)cc3)cc12,"inconclusive: 20.8 µM [inhibitor, partial curve] and inconclusive: 37 µM [inhibitor, partial curve, poor fit]"
10,CC/C=C/C=C/C1(C)OC(OC)=C(C(=O)C2C(C)C(=O)c3cc(OC)c(O)c(O)c3C2(C)O)C1=O (stereo not given),"inconclusive: 7.2 µM [inhibitor, partial curve]"
11,C[C@H]1O[C@@H](O[C@H]2[C@@H](O)C[C@H](O[C@H]3[C@@H](O)C[C@H](O[C@H]4CC[C@@]5(C)[C@H](CC[C@@H]6[C@@H]5CC[C@]5(C)[C@@H](C7=CC(=O)OC7)CC[C@]65O)C4)O[C@@H]3C)O[C@@H]2C)C[C@H](O)[C@@H]1O,active: 0.107 µM
12,O=C(Nc1ccc(Br)cc1)c1cc(Br)cc(Br)c1O,active: 8.29 µM
13,Oc1ccc([C@H]2CNCc3c2ccc(O)c3O)cc1O,"inconclusive: 32.9 µM [inhibitor, partial curve, poor fit]"
14,CC(C)=CCN1CC[C@@]2(C)c3cc(O)ccc3C[C@@H]1[C@@H]2C,"inconclusive: 7.47 µM [inhibitor, partial curve]"
15,CC[C@H](C)[C@H]1O[C@]2(C=C[C@@H]1C)C[C@@H]1C[C@@H](C/C=C(\C)[C@@H](O[C@H]3C[C@H](OC)[C@@H](O[C@H]4C[C@H](OC)[C@@H](O)[C@H](C)O4)[C@H](C)O3)[C@@H](C)/C=C/C=C3\CO[C@@H]4[C@H](O)C(C)=C[C@@H](C(=O)O1)[C@]34O)O2,active: 20.8 µM
16,CC(C)=CCC[C@]1(C)C=Cc2c(O)c3c(c(CC=C(C)C)c2O1)O[C@]12C(=C[C@@H]4CC1C(C)(C)O[C@@]2(C/C=C(/C)C(=O)O)C4=O)C3=O,active: 2.94 µM
17,CC(=O)OCC1=C(C(=O)O)N2C(=O)[C@@H](N)[C@H]2SC1,inactive
18,O=c1oc2ccccc2c(O)c1C(CC(O)c1ccc(-c2ccc(Br)cc2)cc1)c1ccccc1 (stereo not given),"inconclusive: 8.91 µM [inhibitor, single point]"
19,O=c1c(C2CC(c3ccc(-c4ccc(Br)cc4)cc3)Cc3ccccc32)c(O)sc2ccccc12 (stereo not given),"inconclusive: 7.37 µM [inhibitor, full curve]"
20,C[C@]12CC[C@@H]3c4ccc(OC(=O)N(CCCl)CCCl)cc4CC[C@H]3[C@@H]1CC[C@@H]2O,"inconclusive: 29.4 µM [inhibitor, single point]"
